The results in this text go back to PubChem BioAssay AID488969 (Vanderbilt High Throughput Screening Facility, 2010).

Over roughly 110,000 compounds, “z-score” has its median near -0.1; the highest 2% begin near 2. This is one part of the list.

The experiment has as its target Metabotropic glutamate receptor 8 (Rattus norvegicus) (UniProt P70579). The experiment can be described thus: rat mGluR8 modulators via GIRK flux, primary screen, cell-based, thallium flux, HTS (AID 488969). As to conditions: HEK293 rat mGluR8, GIRK (G protein-gated inwardly rectifying potassium channel) thallium flux, FluoZin2; at 10 µM; stronger effect = higher value; submaximal glutamate (EC20) added with thallium.
UniProt P70579, sequence (P70579 whole entry, looked up): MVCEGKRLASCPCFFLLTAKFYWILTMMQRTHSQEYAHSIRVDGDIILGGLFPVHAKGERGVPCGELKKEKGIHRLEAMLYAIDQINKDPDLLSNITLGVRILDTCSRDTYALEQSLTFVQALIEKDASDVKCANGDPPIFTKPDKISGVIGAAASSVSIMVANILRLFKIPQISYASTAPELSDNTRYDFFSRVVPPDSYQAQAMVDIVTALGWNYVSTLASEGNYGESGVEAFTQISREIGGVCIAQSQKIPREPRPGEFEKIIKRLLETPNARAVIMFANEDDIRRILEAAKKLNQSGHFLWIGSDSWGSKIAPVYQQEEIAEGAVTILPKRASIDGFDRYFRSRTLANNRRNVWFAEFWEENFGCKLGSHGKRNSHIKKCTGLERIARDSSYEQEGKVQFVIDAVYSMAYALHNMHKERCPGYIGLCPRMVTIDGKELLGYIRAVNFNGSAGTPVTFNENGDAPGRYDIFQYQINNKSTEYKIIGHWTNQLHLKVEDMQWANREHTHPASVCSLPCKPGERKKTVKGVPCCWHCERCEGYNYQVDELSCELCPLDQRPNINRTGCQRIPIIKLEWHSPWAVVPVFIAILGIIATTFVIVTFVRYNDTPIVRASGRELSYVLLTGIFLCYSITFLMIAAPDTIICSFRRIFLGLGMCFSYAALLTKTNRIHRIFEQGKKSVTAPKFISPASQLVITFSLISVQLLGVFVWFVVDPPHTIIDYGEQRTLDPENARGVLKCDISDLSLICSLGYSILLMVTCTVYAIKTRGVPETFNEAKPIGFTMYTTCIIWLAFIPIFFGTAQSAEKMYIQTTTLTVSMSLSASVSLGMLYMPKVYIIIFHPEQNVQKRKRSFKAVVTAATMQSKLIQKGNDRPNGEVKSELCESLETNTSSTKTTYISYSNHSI
For the compound `CCCC(C)NC(=O)COC(=O)c1ccc(Cl)c(S(N)(=O)=O)c1` (centres undefined), the z-score was -0.328.

With `O=C1OCCC1Sc1nnc(-c2ccccc2)o1` (centres undefined), the z-score is -0.134.

Turning to `CCCCN1C(=O)C2NN=C(C(=O)OC)C2C1=O` (centres undefined), the z-score is -0.112.

The compound `COc1cc(C(=O)N/N=C(\C)Cn2nc([N+](=O)[O-])cc2C)ccc1O` had a z-score of 0.363.

For the compound `Cc1ccc(-c2nnc(SCc3nc4ccccc4[nH]3)n2Cc2ccco2)cc1`, the z-score is -0.115.

As for `Cc1ccc(C(=O)COC(=O)c2ccccc2NC(=O)c2ccccc2)cc1[N+](=O)[O-]`, the z-score is 0.0743.

In turn, `Cc1ccc(C2=N/C(=C/c3cccs3)C(=O)N2Nc2ccccc2)cc1` came in with a z-score of 0.175.

In turn, `O=C(Nc1ccc2c(c1)OCCO2)c1ccc(S(=O)(=O)N2CCCCC2)cc1` had a z-score of -0.269.

In the case of `CCOC(=O)N1CCC(NC(=O)C2CCN(C(=O)N3CCOc4ccccc43)CC2)CC1`, the z-score is -0.151.

In turn, `O=C(CCSc1nc(-c2ccco2)cc(C(F)(F)F)n1)N1CCN(c2ccccn2)CC1` gave a z-score of -0.717.

On to `CCN(CC)CCNc1c2c(c(C#N)c3nc4ccccc4n13)CCCC2`, for which the z-score is -0.313.

As for `Cc1cc([N+](=O)[O-])c(C(C)(C)C)cc1N`, the z-score amounted to 1.32.

For `Cc1cc2ncn(C(=O)c3c(-c4ccccc4Cl)noc3C)c2cc1C`, the z-score amounted to 1.09.

In the case of `COc1ccc(OCC(=O)Nc2ccc(S(=O)(=O)N3CCOCC3)cc2)cc1`, the z-score was -0.0887.

`Cc1cc(NC(=O)CCC(=O)N(c2ccccc2)C(C(=O)NC2CCCC2)c2ccccc2)no1` (centres undefined) returned a z-score of -0.167.

`Cc1nc2ccc(S(=O)(=O)NCC(=O)N3CCN(c4ccccc4)CC3)cc2s1` returned a z-score of -0.417.

`O=C(CCN1CCN(c2ccc(Cl)cc2)CC1)Nc1nccs1`: the z-score was -1.68.

`O=C(Cc1c(O)c2ccccc2[nH]c1=O)NCc1ccc(F)cc1` came in with a z-score of -0.0894.

Compound `CCc1ccc(C2N(c3ccc(OC)cc3)C(=O)C3CCCN32)cc1` (centres undefined) registered a z-score of -0.173.

In turn, `CCN(CC)C(=O)C(Cc1ccccc1)N1C(=O)c2ccccc2C1=O` (centres undefined) came in with a z-score of -0.101.

As to `CC1=C(C(=O)Nc2ccccc2)C(c2sccc2C)n2nnnc2N1` (centres undefined), the z-score is -0.812.

Turning to `C/C(=N\N=C(N)N)c1ccc(Cl)cc1`, the z-score was found to be 0.836.

The compound `COc1ccc(Nc2nc(OC)nc(N3CCN(c4ccc(OC)cc4)CC3)n2)cc1` came in with a z-score of -0.184.

The compound `O=C(CSc1nc(Nc2ccccc2)nc(N2CCOCC2)n1)N1CCCC1` registered a z-score of -0.384.

`Cc1occc1-c1nnc(SCC(N)=O)n1Cc1ccccc1` registered a z-score of -0.113.

Regarding `CSc1ccc(Cl)c(C(=O)OCC(=O)NCC(C)C)c1`, the z-score is -0.206.

Regarding `COc1ccc(NC(=O)NCCCN2CCCCC2C)cc1` (centres undefined), the z-score is 0.284.

As to `Cc1cccc(NC(=S)NN2CCOCC2)c1C`, the z-score was -0.345.

For the compound `CCc1ccc(OCc2nnc(NC(=O)c3cccs3)s2)cc1`, the z-score is -0.163.

In turn, `Cc1nnc(SCC(=O)OC2CC(C)CCC2C(C)C)[nH]c1=O` (centres undefined) displayed a z-score of 0.431.

On to `CC(=O)Nc1sc2c(c1C(c1ccc(Cl)cc1)N1CCOCC1)CCCC2` (centres undefined), for which the z-score was -0.0741.

Compound `O=C(c1coc(=O)c(Br)c1)N1CCOCC1` had a z-score of 0.0321.

As to `CCOc1ccc(CC(=O)NNC(=S)Nc2ccccc2)cc1Br`, the z-score stood at 0.065.

Compound `O=C1c2ccccc2C(=O)N1CCCc1nc(-c2ccc(Cl)cc2)no1` had a z-score of -0.178.

Regarding `CCOC(=O)C1CCN(C/C=C/c2ccccc2OC)CC1`, the z-score is 0.302.

`CCN(CC)S(=O)(=O)c1cccc(C(=O)N/N=C/c2ccc(O)c(O)c2O)c1` had a z-score of 0.525.

`Cc1ccccc1C(=O)Nc1ccc2c(c1)OCO2`: the z-score was -0.504.

`CCSc1nnc(NC(=O)[C@@H](NC(=O)c2cccc(C)c2)C(C)C)s1`: the z-score was -0.402.

For the compound `Cc1cccc(NC(=O)c2c(F)c(F)c(F)c(F)c2F)c1`, the z-score turned out to be 0.346.

Regarding `O=C(CN1C(=O)CC(c2ccccc2)=Nc2ccccc21)NCc1ccccc1`, the z-score is -0.194.

In turn, `O=C(CSc1nnc2scc(-c3ccccc3)n12)NCc1ccc2c(c1)OCO2` came in with a z-score of -0.338.

Regarding `CCOc1ccc(N(CC(=O)O)S(=O)(=O)c2ccc(OC)c(OC)c2)cc1`, the z-score amounted to 0.044.

On to `CCc1ccccc1Nc1nc(N)nc(CSCC(=O)Nc2ccc(C)c(C)c2)n1`, for which the z-score was -2.23.

On to `COC(=O)C1(S(=O)(=O)c2cc(Br)cc3c2N(C(C)=O)CC3)CC1`, for which the z-score is -0.117.

`COc1ccc2c(c1)c(C(=O)N1CCN(C)CC1)c(C)n2-c1ccccc1` gave a z-score of 0.208.

In turn, `Cc1nc2c(c(C)nn2-c2ccccc2)c(C)c1Cl` yielded a z-score of 0.509.

`COc1cc(/C=N/NC(N)=O)c(Br)cc1OCC(=O)Nc1ccccc1C` came in with a z-score of -0.293.

Take `Cc1ccc2cc(CN(Cc3ccco3)C(=O)NC3CCCCC3)c(=O)[nH]c2c1C`: the z-score was 0.547.

`COC(=O)CSc1nnc(-c2cccnc2)o1`: the z-score is -0.0715.

`CC(=O)c1c(C(C)=O)c(C)n(-c2ccc(C)c(NC(=O)c3ccccc3Cl)c2)c1C` registered a z-score of -0.455.

`O=C(Cn1nnc(-c2ccccc2)n1)OCc1csc(-c2ccccc2)n1` yielded a z-score of -0.49.

For `COc1cc(S(=O)(=O)N2CCN(Cc3ccccc3)CC2)ccc1Br`, the z-score is -0.237.

`COc1cc(OC)cc(-c2nnc(SCC(=O)N3c4ccccc4Sc4ccccc43)o2)c1`: the z-score is -0.17.

In turn, `CCCc1cc(=O)[nH]c(Nc2ccc(O)cc2)n1` showed a z-score of -1.37.

In turn, `CCOC(=O)N1CCN(C(=O)CN(C2CCCCC2)S(=O)(=O)c2ccc(C)cc2)CC1` returned a z-score of 0.464.

`O=C(COC(=O)/C=C/c1nc2ccccc2s1)Nc1cccc(Cl)c1Cl` had a z-score of 0.00537.

In the case of `COc1ccc([C@H]2[C@H](C(=O)C(C)(C)C)N3N=Cc4ccccc4C3[C@]23N=C(c2ccccc2)OC3=O)cc1` (some centres undefined), the z-score is -0.129.

`Cc1ccc2cc3cc(C(=O)NCc4ccc5c(c4)OCO5)oc3nc2c1` returned a z-score of -0.411.

Regarding `COc1ccccc1C1CC(c2ccc(Br)cc2)=NN1C(=O)c1cccnc1` (centres undefined), the z-score is -0.436.

In turn, `COC(=O)c1c(NS(C)(=O)=O)sc2c1CCCC2` showed a z-score of 0.0189.

For `COc1cccc(Cn2cccc(NC(=O)Nc3ccc(C#N)cc3)c2=O)c1`, the z-score is -0.975.

`Cc1cc(C)c(C#N)c(SCc2[nH]nc3c2C(c2ccc(F)cc2)C(C#N)=C(N)O3)n1` (centres undefined) had a z-score of -0.0705.

With `Cc1c(CCC(C)C)c(-n2ccnc2C)n2c(nc3ccccc32)c1C#N`, the z-score is -0.329.

Compound `CCOC(=O)c1c(N)sc2c1CCS(=O)(=O)C2` registered a z-score of 0.497.

`CCC(CC)c1nnc(NC(=O)c2ccc([N+](=O)[O-])cc2)s1` returned a z-score of -0.0159.

With `CCOC(=O)c1[nH]nc(N)c1NC(=O)c1ccc(Cl)cc1Cl`, the z-score was -0.368.

In turn, `CCOC(=O)CSc1ncc(OC)c(Sc2ccc(OC)cc2)n1` showed a z-score of -0.366.

`Cc1cc(C)c(S(=O)(=O)c2ccccc2)c(Cl)n1` displayed a z-score of -0.000337.

`COc1cc(OC)c(C(=O)Nc2ncn[nH]2)cc1OC` returned a z-score of 0.964.
